In all, about 150,000 compounds went through this assay and about 540 (0.36%) showed an effect of 50% or more. The list shows a part of the results.
Tested on: Plasmodium falciparum
Test: Primary screen in NF54 nanoGlo assay, in single point, at 2uM, 72h; a lower Z score goes with more inhibition
Type: functional, Erythrocyte
Details: timepoint 72 hour

| SMILES | % Inhibition [%] | Z score |
| --- | --- | --- |
| CCn1ncc(NC(=O)c2cccc(OC)c2)c(N2CCCCC2)c1=O | -1 | 0.23 |
| CC[C@H](NCCCC#N)c1ccc(F)cc1F | 6 | -0.87 |
| Cc1ccc(C(=O)NCc2cc[nH]n2)n1C(F)F | -10 | 1.22 |
| COc1cc(Cl)cc([C@H](C)Nc2cc(N3CCNCC3)ccc2S(C)(=O)=O)c1OC | -7 | 1.14 |
| CCCCc1nc([C@H]2CC(=O)Nc3c2cnn3Cc2cccnc2)c[nH]1 | -4 | 0.82 |
| COC(=S)NC(=O)c1ccc(Cl)cc1 | 4 | -0.49 |
| O=C(CC1CCC(F)(F)CC1)Nc1ccc2c(n1)OCCO2 | -3 | 0.34 |
| CCc1nc(CN2CCN(S(=O)(=O)Cc3ccccc3C)CC2)no1 | 7 | -1.4 |
| O=C(N[C@@H]1C=C[C@H](CO)C1)c1cn2ccnc2s1 | -2 | 0.29 |
| Cn1ccnc1-c1noc(C[C@@H]2C[C@H]2c2ccccc2)n1 | -6 | 0.68 |
| Cc1ccc(N2C(=O)C3C(c4ccccc4O)NC(Cc4c[nH]c5ccccc45)(C(=O)O)C3C2=O)cc1 (stereo not given) | 0 | 0.06 |
| Cc1nc(-c2ccc3c(c2)OCO3)cs1 | -13 | 1.85 |
| CC[C@@H](CO)NC(=O)Nc1cccc(C)c1 | 34 | -0.75 |
| COc1ccc(S(=O)(=O)N[C@H]2CCNC2=O)c2c1CCCC2 | -12 | 1.54 |
| CCC1CC(NC(=O)NCc2ccc3occc3c2)CCO1 (stereo not given) | 4 | -0.59 |
| CC(C)[C@H](NC1CN(C(=O)OCc2ccccc2)C1)c1nncn1C | -8 | 1.43 |
| COc1ccc(Oc2cn[nH]c2-c2ccc(OCc3ccc(F)cc3)cc2O)cc1 | 4 | -0.82 |
| Cc1ccc2nc(CCCNC(=O)c3cc4n(n3)CCCN(C)C4)oc2c1 | -7 | 1.25 |
| CCCCOCCCNC(=O)CS(=O)(=O)Cc1ccccc1 | -8 | 1.57 |
| Cc1cc(C2(NC(=O)Nc3cccc(-n4ccnn4)c3)CCOCC2)on1 | -8 | 1.24 |
| O=C(Cc1c[nH]c2ccccc12)N1CC[C@H](CCOc2ccccc2F)C1 | -6 | 1.07 |
| COc1cccc(C(=O)N(CCC(=O)N2CCNCC2)CCC(C)C)c1 | -3 | 0.34 |
| O=C1N(C2CCCCC2)CCC[C@@]12CCN(c1nc(CO)cs1)C2 | -3 | 0.65 |
| COc1ccccc1CCNC(=O)CC[C@@H]1CN(Cc2ccccc2)CC[C@@H]1N1CCN(C)CC1 | 8 | -0.91 |
| CC(C)(C)S(=O)(=O)[C@H]1CCN(C(=O)Cc2c(F)cccc2Cl)C1 | 4 | -0.7 |
| C[C@@]1(C(=O)NCc2ccccc2)Cn2cnc(C(=O)N3CCOCC3)c2C(=O)N1C1CC1 | -9 | 1.71 |
| Cc1c(Cl)cccc1-c1ccc(C(=O)N[C@@H](C)c2nc(C3CC3)no2)cc1 | -5 | 0.91 |
| Cc1cccc(NC(=O)[C@@H](C#N)C(=O)COc2ccc(F)cc2)c1 | -3 | 0.45 |

| SMILES | % Inhibition [%] | Z score |
| --- | --- | --- |
| Cc1ncsc1CCc1nc(CN2CCOCC2)no1 | 20 | -2.72 |
| CCn1cnnc1[C@H]1CCCN(Cc2cc(F)cc(F)c2)C1 | -12 | 1.28 |
| C=C[C@H]1OCC[C@@H]1C(=O)NC1(C(=O)N(C)C)CCCCC1 | -1 | 0.12 |
| CCc1noc(C)c1C(=O)OCc1nc(N)nc(Nc2ccccc2)n1 | -10 | 1.86 |
| Cc1ccc(OCc2c(C(=O)N3CCC[C@H](c4nc(C)ncc4CO)C3)noc2C)cc1 | -17 | 1.96 |
| CCCc1nnc(NCC2(COC)CCCC2)s1 | -12 | 2.33 |
| Cc1cnn([C@@H](C)C2CC2)c1NC(=O)c1nn(C)c(=O)c2ccccc12 | 12 | -1.69 |
| Cc1c[nH]c(C(=O)N2CCN(C)[C@@]3(CCNC(=O)CC3)C2)c1 | -10 | 1.55 |
| Cc1nc([C@H](C)NC(=O)c2ccc(C)s2)n[nH]1 | -10 | 1.7 |
| COc1ccc2nc(C)c(C(=O)N3CCO[C@@H](COC(C)C)C3)n2n1 | 9 | -1.08 |
| O=C(Nc1ccn(-c2ncccc2Cl)n1)N1CC[C@H](O)C1 | 0 | 0.04 |
| CCc1nnsc1C(=O)NCCN1CCCCC1 | 1 | -0.16 |
| COC(=O)[C@H]1Cc2[nH]ncc2N(Cc2ncc(C)o2)C1 | 5 | -0.6 |
| O=C(CCc1cccnc1)N[C@H]1CCN(c2cnccn2)C[C@@H]1O | -17 | 2.98 |
| CCN1CCCC[C@@H]1CNS(=O)(=O)c1ccnn1C(C)C | -6 | 1.35 |
| CCC[C@]1(CO)CCCN(C(=O)c2cnc(-c3cccnc3)nc2C)C1 | -7 | 1.37 |
| COc1ccc(CCCN(C)c2ccc(-c3nc(C)c(C)c(=O)[nH]3)cn2)cc1 | -14 | 1.81 |
| O=C(Nc1nnc2ccccn12)c1cccc(NC(=O)c2ccco2)c1 | -11 | 2.26 |
| O=C(c1ccc2sccc2c1)N1CCOCC1 | -7 | 0.75 |
| CCCN(CC#Cc1ccccc1)C(=O)c1c(Cl)cnn1CC | -1 | 0.07 |
| CN(CCN(C)c1nc(C2CCCCC2)ns1)C(=O)[C@H]1CCC(=O)N1 | 4 | -0.64 |
| CCc1cc(N2CCC[C@](Cc3ccc(F)cc3F)(C(=O)O)C2)ncn1 | 5 | -1.02 |
| CC(C)c1cnc(N2CCC(c3nnc4n3CCNC4)CC2)s1 | -1 | 0.2 |
| CCc1cccc2c1N(Cc1ncoc1C1CC1)CCC2 | -10 | 0.82 |
| O=C(Cc1noc2ccccc12)N1CCN(c2ccc(-c3ccccn3)nn2)CC1 | 6 | -0.88 |
| CCN(CCO)CC(=O)Nc1c(Cl)cccc1Cl | -4 | 0.67 |
| CN(C)C(=O)Cn1cc2c(n1)[C@@H](Nc1ccc(C(F)(F)F)nn1)CCC2 | -6 | 0.66 |

From ChEMBL document CHEMBL4888484, “Replenishing the malaria drug discovery pipeline: Screening and hit evaluation of the MMV Hit Generation Library 1 (HGL1) against asexual blood stage Plasmodium falciparum ,using a nano luciferase reporter read-out” (2022)
